pIC50: −log10 of the molar value. A lower IC50 marks a more sensitive line; where the fit passes the top or lowest dose, that dose stands as a limit. For AUC the same curve is integrated over the 256-fold range of doses and scaled to a fraction; it is 1 without any effect and falls as sensitivity rises. For some assays here: Any top dose called inferred comes from the curve model; the source does not state it. For some assays here: Drugs with an entry number were screened twice under separate entries, and the two screens often disagree.
Key:
Experiment in all cases: Viability of human cancer cell lines after 72 h of drug (GDSC screen)
JNK-9L = compound: Fc1cc(-c2ccnc(Nc3ccc(-n4cnc(N5CCOCC5)n4)cc3)n2)cc(N2CCOCC2)c1 [JNK-9L]; conditions: top dose 5.12 µM; top dose inferred
Description: (§1)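 Human cancer cell lines in 384-well plates, medium with 10% serum, drug for 72 h over a 256-fold dose range (nine 2-fold or five 4-fold steps up to the top dose). Adherent lines were fixed and stained with the nucleic acid dye Syto60, suspension lines read with resazurin; signal relative to control wells, capped at 0 and 100%. One two-parameter sigmoid per drug and line, fitted in a mixed model over all curves with the slope shared within a line.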

CUDC-101 = compound: C#Cc1cccc(Nc2ncnc3cc(OC)c(OCCCCCCC(=O)NO)cc23)c1 [CUDC-101]; conditions: top dose 5.12 µM; top dose inferred
Description: as §1

RDEA119 = compound: COc1cc(F)c(F)c(Nc2ccc(I)cc2F)c1NS(=O)(=O)C1(C[C@H](O)CO)CC1 [RDEA119]; conditions: top dose 5 µM, top dose inferred
Description: as §1

5-Fluorouracil = compound: O=c1[nH]cc(F)c(=O)[nH]1 [5-Fluorouracil]; conditions: top dose 32 µM; top dose inferred
Description: as §1

OSU-03012 = compound: NCC(=O)Nc1ccc(-n2nc(C(F)(F)F)cc2-c2ccc3c(ccc4ccccc43)c2)cc1 [OSU-03012]; conditions: top dose 16 µM; top dose inferred
Description: as §1

AC220 = compound: CC(C)(C)c1cc(NC(=O)Nc2ccc(-c3cn4c(n3)sc3cc(OCCN5CCOCC5)ccc34)cc2)no1 [AC220]; conditions: top dose 1.024 µM; top dose inferred
Description: as §1

QS11 = compound: OC[C@H](Cc1ccccc1)Nc1nc(Oc2ccc3c(c2)CCC3)nc2c1ncn2Cc1ccc(-c2ccccc2)cc1 [QS11]; conditions: top dose 10.24 µM
Description: as §1

Cell Line | AUC (JNK-9L) | pIC50 (JNK-9L) | AUC (CUDC-101) | pIC50 (CUDC-101) | AUC (RDEA119; screen: GDSC drug entry 1014) | pIC50 (RDEA119; screen: GDSC drug entry 1014) | AUC (RDEA119; screen: GDSC drug entry 1526) | pIC50 (RDEA119; screen: GDSC drug entry 1526) | AUC (5-Fluorouracil) | pIC50 (5-Fluorouracil) | AUC (OSU-03012) | pIC50 (OSU-03012) | AUC (AC220) | pIC50 (AC220) | AUC (QS11) | pIC50 (QS11)
CaR-1 (large intestine, adherent) | 0.704 | 5.79 | 0.513 | 6.45 | 0.796 | 5.42 | 0.896 | < 5.30 | 0.916 | < 4.49 | 0.853 | < 4.80 | 0.978 | < 5.99 | 0.978 | < 4.99
Calu-3 (lung adenocarcinoma, adherent) | 0.658 | 6.01 | 0.629 | 6.10 | 0.865 | < 5.30 | 0.837 | 5.33 | 0.983 | < 4.49 | 0.758 | 5.16 | 0.981 | < 5.99 | 0.85 | < 4.99
Calu-6 (lung adenocarcinoma, adherent) | 0.511 | 6.46 | 0.575 | 6.28 | 0.833 | 5.41 | 0.66 | 6.03 | 0.765 | 4.88 | 0.847 | 4.84 | 0.984 | < 5.99 | 0.944 | < 4.99
D-263MG (glioma, adherent) | 0.638 | 6.08 | 0.826 | 5.39 | 0.512 | 6.47 | 0.614 | 6.16 | 0.961 | < 4.49 | 0.867 | < 4.80 | 0.983 | < 5.99 | 0.893 | < 4.99
D-283MED (medulloblastoma, adherent) | 0.676 | 6.03 | 0.991 | < 5.29 | 0.971 | < 5.30 | 0.99 | < 5.30 | 0.916 | < 4.49 | 0.868 | 4.91 | 0.991 | < 5.99 | 0.978 | < 4.99
D-392MG (glioma, adherent) | 0.755 | 5.63 | 0.623 | 6.10 | 0.803 | 5.44 | 0.813 | 5.40 | 0.943 | < 4.49 | 0.867 | < 4.80 | 0.926 | < 5.99 | 0.98 | < 4.99
D-502MG (glioma, adherent) | 0.735 | 5.65 | 0.562 | 6.29 | 0.794 | 5.40 | 0.76 | 5.56 | 0.877 | < 4.49 | 0.926 | < 4.80 | 0.974 | < 5.99 | 0.976 | < 4.99
D-542MG (glioma, adherent) | 0.545 | 6.36 | 0.581 | 6.25 | 0.888 | < 5.30 | 0.817 | 5.44 | 0.983 | < 4.49 | 0.883 | < 4.80 | 0.984 | < 5.99 | 0.841 | 5.02

Source: the supplement of paper PMC4967469
